# Laboratory results: the supplement of paper PMC7826260
# Some of the results follow. Each Rep nickase domain was tested in vitro on the same pool of single strands for 1 h at 37 °C with 3 µM enzyme; only the middle of the 90-letter strands is printed. The score is log2 (uncut reads / reads without enzyme); strong cutting gives strongly negative numbers. There is no active / inactive call. Shares of all reads are compared; where an enzyme cuts many sequences, the uncut ones exceed 0.
# Experiments:
# Test in all cases: uncleaved DNA left, log2 of reads against the no-enzyme library (log2 ratio); higher = less cleavage (more negative = more Rep cleavage of the k-mer); sequences stand for … in CTCGTCCG…ACCGGAGA
# [1] = system: T1, Rep nickase domain of Muscovy duck circovirus
# T1 sequence (protein, residues 1-111, tag omitted): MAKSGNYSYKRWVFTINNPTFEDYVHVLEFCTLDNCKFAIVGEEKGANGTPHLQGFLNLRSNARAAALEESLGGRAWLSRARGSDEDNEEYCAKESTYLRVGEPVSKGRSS
# Experimental: (§1)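 A pool of 90-nt single-stranded DNAs with seven random bases just before the constant AC of the nick site (name = the seven bases) was cut by 3 µM recombinant His6-SUMO-tagged Rep nickase domain (300 nM DNA, 50 mM HEPES pH 8.0, 50 mM NaCl, 1 mM MnCl2, 1 h, 37 °C, three replicates). Uncut DNA was amplified and sequenced.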
# [2] = system: T2, Rep nickase domain of banana bunchy top virus
# T2 sequence (protein, residues 1-94, tag omitted): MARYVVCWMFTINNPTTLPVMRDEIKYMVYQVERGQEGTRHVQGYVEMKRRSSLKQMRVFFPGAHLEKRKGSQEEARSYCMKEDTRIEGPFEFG
# Experimental: as §1
# [3] = system: T3, Rep nickase domain of cabbage leaf curl virus
# T3 sequence (protein, residues 1-116, tag omitted): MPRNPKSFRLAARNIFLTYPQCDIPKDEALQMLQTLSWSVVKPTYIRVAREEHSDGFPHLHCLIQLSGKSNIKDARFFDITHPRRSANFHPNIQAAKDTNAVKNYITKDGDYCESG
# Experimental: as §1
# [4] = system: T4, Rep nickase domain of chickpea chlorotic dwarf virus
# T4 sequence (protein, residues 1-124, tag omitted): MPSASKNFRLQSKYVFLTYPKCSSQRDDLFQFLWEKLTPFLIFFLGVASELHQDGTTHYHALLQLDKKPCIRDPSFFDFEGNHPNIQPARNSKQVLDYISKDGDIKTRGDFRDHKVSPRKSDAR
# Experimental: as §1
# [5] = system: T5, Rep nickase domain of faba bean necrotic yellows virus
# T5 sequence (protein, residues 1-98, tag omitted): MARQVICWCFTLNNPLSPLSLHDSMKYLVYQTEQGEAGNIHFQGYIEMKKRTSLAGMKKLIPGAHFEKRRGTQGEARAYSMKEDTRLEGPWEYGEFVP
# Experimental: as §1
# [6] = system: T6, Rep nickase domain of maize striate mosaic virus
# T6 sequence (protein, residues 1-117, tag omitted): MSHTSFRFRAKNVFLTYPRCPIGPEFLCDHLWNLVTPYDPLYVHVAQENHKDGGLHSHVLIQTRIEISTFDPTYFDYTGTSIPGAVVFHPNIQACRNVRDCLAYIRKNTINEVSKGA
# Experimental: as §1
# [7] = system: T7, Rep nickase domain of porcine circovirus 2
# T7 sequence (protein, residues 2-116, tag omitted): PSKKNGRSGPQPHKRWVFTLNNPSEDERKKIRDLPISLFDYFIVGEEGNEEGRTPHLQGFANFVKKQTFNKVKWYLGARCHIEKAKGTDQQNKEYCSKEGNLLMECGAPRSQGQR
# Experimental: as §1
# [8] = system: T8, Rep nickase domain of tomato yellow leaf curl virus
# T8 sequence (protein, residues 1-136, tag omitted): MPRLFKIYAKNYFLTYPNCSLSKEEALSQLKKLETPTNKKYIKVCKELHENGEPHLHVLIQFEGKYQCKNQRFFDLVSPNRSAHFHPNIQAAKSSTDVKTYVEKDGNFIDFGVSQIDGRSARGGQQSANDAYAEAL
# Experimental: as §1
# [9] = system: T9, Rep nickase domain of wheat dwarf virus
# T9 sequence (protein, residues 1-137, tag omitted): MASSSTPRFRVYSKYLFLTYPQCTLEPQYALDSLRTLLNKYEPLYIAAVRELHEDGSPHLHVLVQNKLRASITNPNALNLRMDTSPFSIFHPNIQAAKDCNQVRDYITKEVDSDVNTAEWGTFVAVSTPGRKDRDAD
# Experimental: as §1
sequence,measurement,setting,value
CGGTTTC,uncleaved DNA left (log2),[1],0.113
same,uncleaved DNA left (log2),[2],-0.011
same,uncleaved DNA left (log2),[3],0.239
same,uncleaved DNA left (log2),[4],0.469
same,uncleaved DNA left (log2),[5],-0.0583
same,uncleaved DNA left (log2),[6],0.594
same,uncleaved DNA left (log2),[7],0.0594
same,uncleaved DNA left (log2),[8],0.0252
same,uncleaved DNA left (log2),[9],0.0771
ACGATAG,uncleaved DNA left (log2),[1],0.0317
same,uncleaved DNA left (log2),[2],0.162
same,uncleaved DNA left (log2),[3],-0.619
same,uncleaved DNA left (log2),[4],-0.308
same,uncleaved DNA left (log2),[5],-0.0185
same,uncleaved DNA left (log2),[6],-1.1
same,uncleaved DNA left (log2),[7],0.253
same,uncleaved DNA left (log2),[8],-0.0498
same,uncleaved DNA left (log2),[9],-0.114
TTACATG,uncleaved DNA left (log2),[1],-0.015
same,uncleaved DNA left (log2),[2],-0.0249
same,uncleaved DNA left (log2),[3],-0.64
same,uncleaved DNA left (log2),[4],-1.63
same,uncleaved DNA left (log2),[5],0.026
same,uncleaved DNA left (log2),[6],-1.12
same,uncleaved DNA left (log2),[7],0.0615
same,uncleaved DNA left (log2),[8],0.0167
same,uncleaved DNA left (log2),[9],-0.059
CACTTAC,uncleaved DNA left (log2),[1],0.0424
same,uncleaved DNA left (log2),[2],-0.0616
same,uncleaved DNA left (log2),[3],-0.39
same,uncleaved DNA left (log2),[4],-2.47
same,uncleaved DNA left (log2),[5],-0.0625
same,uncleaved DNA left (log2),[6],-1.09
same,uncleaved DNA left (log2),[7],-0.245
same,uncleaved DNA left (log2),[8],-0.114
same,uncleaved DNA left (log2),[9],-0.151
TTATTAC,uncleaved DNA left (log2),[1],-3.39
same,uncleaved DNA left (log2),[2],-0.96
same,uncleaved DNA left (log2),[3],-0.596
same,uncleaved DNA left (log2),[4],-2.5
same,uncleaved DNA left (log2),[5],-0.129
same,uncleaved DNA left (log2),[6],-0.761
same,uncleaved DNA left (log2),[7],-3.31
same,uncleaved DNA left (log2),[8],-0.124
same,uncleaved DNA left (log2),[9],-0.534
CTCGTAA,uncleaved DNA left (log2),[1],0.0716
same,uncleaved DNA left (log2),[2],-0.013
same,uncleaved DNA left (log2),[3],-0.0547
same,uncleaved DNA left (log2),[4],-0.338
same,uncleaved DNA left (log2),[5],0.245
same,uncleaved DNA left (log2),[6],-0.613
same,uncleaved DNA left (log2),[7],0.143
same,uncleaved DNA left (log2),[8],0.123
same,uncleaved DNA left (log2),[9],0.105
CGCGGGG,uncleaved DNA left (log2),[1],-0.0725
same,uncleaved DNA left (log2),[2],-0.144
same,uncleaved DNA left (log2),[3],0.492
same,uncleaved DNA left (log2),[4],0.774
same,uncleaved DNA left (log2),[5],-0.113
same,uncleaved DNA left (log2),[6],1.1
same,uncleaved DNA left (log2),[7],-0.0278
same,uncleaved DNA left (log2),[8],-0.264
same,uncleaved DNA left (log2),[9],0.0251
TACGGCT,uncleaved DNA left (log2),[1],0.0233
same,uncleaved DNA left (log2),[2],-0.108
same,uncleaved DNA left (log2),[3],-0.754
same,uncleaved DNA left (log2),[4],-1.8
same,uncleaved DNA left (log2),[5],0.0809
same,uncleaved DNA left (log2),[6],-0.472
same,uncleaved DNA left (log2),[7],-0.0397
same,uncleaved DNA left (log2),[8],-0.0331
same,uncleaved DNA left (log2),[9],-0.122
GGTCATT,uncleaved DNA left (log2),[1],0.0189
same,uncleaved DNA left (log2),[2],0.0917
same,uncleaved DNA left (log2),[3],0.709
same,uncleaved DNA left (log2),[4],1.83
same,uncleaved DNA left (log2),[5],-0.0305
same,uncleaved DNA left (log2),[6],2.15
same,uncleaved DNA left (log2),[7],-0.013
same,uncleaved DNA left (log2),[8],-0.0524
same,uncleaved DNA left (log2),[9],0.147
GGGGCCC,uncleaved DNA left (log2),[1],-0.126
same,uncleaved DNA left (log2),[2],0.0737
same,uncleaved DNA left (log2),[3],0.83
same,uncleaved DNA left (log2),[4],1.81
same,uncleaved DNA left (log2),[5],-0.00318
same,uncleaved DNA left (log2),[6],2.16
same,uncleaved DNA left (log2),[7],0.179
same,uncleaved DNA left (log2),[8],0.00156
same,uncleaved DNA left (log2),[9],0.0251
CCAAGGA,uncleaved DNA left (log2),[1],-0.157
same,uncleaved DNA left (log2),[2],-0.0833
same,uncleaved DNA left (log2),[3],0.086
same,uncleaved DNA left (log2),[4],0.284
same,uncleaved DNA left (log2),[5],-0.201
same,uncleaved DNA left (log2),[6],-0.393
same,uncleaved DNA left (log2),[7],0.055
same,uncleaved DNA left (log2),[8],-0.194
same,uncleaved DNA left (log2),[9],-0.0328
CGACTGT,uncleaved DNA left (log2),[1],-0.00216
same,uncleaved DNA left (log2),[2],-0.0276
same,uncleaved DNA left (log2),[3],-0.0655
same,uncleaved DNA left (log2),[4],0.589
same,uncleaved DNA left (log2),[5],-0.0643
same,uncleaved DNA left (log2),[6],1.64
same,uncleaved DNA left (log2),[7],-0.00656
same,uncleaved DNA left (log2),[8],0.00126
same,uncleaved DNA left (log2),[9],-0.0104
TAAACAA,uncleaved DNA left (log2),[1],-0.0982
same,uncleaved DNA left (log2),[2],-0.0248
same,uncleaved DNA left (log2),[3],-0.366
same,uncleaved DNA left (log2),[4],-2.43
same,uncleaved DNA left (log2),[5],-0.0365
same,uncleaved DNA left (log2),[6],-0.53
same,uncleaved DNA left (log2),[7],0.033
same,uncleaved DNA left (log2),[8],-0.00693
same,uncleaved DNA left (log2),[9],-0.146
TCGCGAC,uncleaved DNA left (log2),[1],-0.0244
same,uncleaved DNA left (log2),[2],-0.148
same,uncleaved DNA left (log2),[3],-0.173
same,uncleaved DNA left (log2),[4],-0.141
same,uncleaved DNA left (log2),[5],0.0182
same,uncleaved DNA left (log2),[6],-0.804
same,uncleaved DNA left (log2),[7],-0.0882
same,uncleaved DNA left (log2),[8],0.00439
same,uncleaved DNA left (log2),[9],-0.164
GAGGAGT,uncleaved DNA left (log2),[1],-0.0494
same,uncleaved DNA left (log2),[2],-0.0654
same,uncleaved DNA left (log2),[3],0.439
same,uncleaved DNA left (log2),[4],1.29
same,uncleaved DNA left (log2),[5],-0.137
same,uncleaved DNA left (log2),[6],1.56
same,uncleaved DNA left (log2),[7],-0.14
same,uncleaved DNA left (log2),[8],-0.0264
same,uncleaved DNA left (log2),[9],-0.0328
